# About 50,000 (12%) of roughly 420,000 compounds were called active. The inconclusive results got no clear call from the source; some entries with a clear call stand among them for comparison. Calls come from the whole dose curve; as a rule, active = well fitted inhibition curve with a large enough effect; inconclusive = small, poorly fitted or top-dose-only effect; inactive = flat fitted curve, though single readings scatter. Potencies of inconclusive entries are left out as doubtful fits.
# Experiment: qHTS for Inhibitors of human tyrosyl-DNA phosphodiesterase 1 (TDP1): qHTS in cells in presence of CPT; note: nearly all actives have a fitted effect of over 55% in size
# Conditions: chicken DT40 Tdp1-/-;hTDP1 cells + 20 nM CPT, ATP luminescence, 48 h; activity change, negative = growth inhibition: at 46.2 µM (top of the series) unless noted
# Outline: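 Chicken DT40 Tdp1-/- cells stably complemented with human TDP1 were seeded at 400 cells/well in medium containing 20 nM camptothecin, exposed to pin-transferred compounds, and grown at 37 °C for at least 48 hr. Viability was read as ATP luminescence.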
# % is set by controls: 0 for no effect and ±100 for the full control effect; potency is the fitted concentration of half-maximal effect; tags give direction and shape of the fitted curve.
Compound,Potency,"activity change, negative = growth inhibition"
COc1ccc(CNC(=O)C[C@H]2C[C@H](C(=O)N(C(C)C)C(C)C)[C@@]3(C)c4[nH]c5ccc(Cl)cc5c4CCN3C2=O)cc1OC,active: 18.4 µM,–
OC[C@H]1O[C@@H](n2cnc3c(NCc4ccccc4)ncnc32)[C@H](O)[C@@H]1O,active: 2.66 µM,–
CC1(C)Cc2nc3[nH]c(=S)[nH]c(=O)c3cc2CO1,–,inactive: 2.07%
N#Cc1ccc(CSc2nnc(-c3c[nH]c4ccccc34)n2-c2ccccc2)cc1,"inconclusive [inhibitor, single point]",–
CCOC(=O)c1sc2nc(C)nc(NCc3ccc(Cl)cc3)c2c1C,active: 11.6 µM,–
CCCCC[C@H](C)N1C[C@H](COCc2ccccc2)Oc2cc(N3CC[C@@H](O)C3)ccc2S1(=O)=O,"inconclusive [inhibitor, single point]",–
CCc1nc2ccc(C(=O)NCC3CCCCC3)cn2c1N(C)C(=O)c1cccc(OC)c1,"inconclusive [inhibitor, single point]",–
CC(/C=N/n1c(COc2ccccc2)n[nH]c1=S)=C\c1ccccc1,"inconclusive [inhibitor, single point]",–
COc1ccc(-n2nc3c(N4CCC(C(=O)NCC(C)c5ccccc5)CC4)nnc(C)c3c2C)cc1 (stereo unspecified),"inconclusive [inhibitor, single point]",–
O=C(NCCc1ccccc1)C1CCCN(S(=O)(=O)c2cccc3nsnc23)C1 (stereo unspecified),"inconclusive [inhibitor, single point]",–
CCOC(=O)C1CCN(S(=O)(=O)c2cc(-c3cc(C)no3)ccc2C)CC1,"inconclusive [inhibitor, single point]",–
CNC(=O)c1sc(N2N=C3/C(=C/c4ccccc4)CCCC3C2c2ccccc2)nc1C (stereo unspecified),"inconclusive [inhibitor, single point]",–
Cc1cccc(-c2nc3scc(CCNC(=O)c4ccccc4Cl)n3n2)c1,"inconclusive [inhibitor, single point]",–
Cc1cccc(C(=O)OCC(=O)NCCNC(=O)COC(=O)c2cccc(C)c2C)c1C,–,inactive: -7%
CCCCCn1c(=O)[nH]c2cc(C(=O)Nc3ccc(F)cc3)ccc2c1=O,active: 20.6 µM,–
O=C(NCCC(=O)N1O[C@@H]2C=C[C@H]1C2)OCC1c2ccccc2-c2ccccc21,"inconclusive [inhibitor, partial curve]",–
O=C(c1cccc(C(F)(F)F)c1)C1CCCN(C(=O)CCCn2cncn2)C1 (stereo unspecified),–,inactive: 1.54%
CC(/C=C1\N=C(SCc2ccccc2Cl)SC1=O)=C\c1ccccc1,"inconclusive [inhibitor, single point]",–
COc1ccc(NC(=S)Nc2cccc(S(=O)(=O)N3CCCCC3)c2)cc1,"inconclusive [inhibitor, single point]",–
COc1ccc(CN(CC(O)COCc2ccccc2)S(=O)(=O)c2ccccc2Br)cc1OC (stereo unspecified),"inconclusive [inhibitor, single point]",–
CN1CCN(C(=O)C23CC4CC(C2)CC(c2ccccc2)(C4)C3)CC1,"inconclusive [inhibitor, single point]",–

Compound,Potency,"activity change, negative = growth inhibition"
CC1CCN(CCNC(=O)c2ccc(Cn3c(SCc4ccccc4)nc4cccnc43)cc2)CC1,"inconclusive [inhibitor, single point]",–
Cc1ccc(N(C(=O)CNC(=O)c2ccco2)C(C(=O)NC2CCCC2)c2ccncc2)cc1C (stereo unspecified),–,inactive: -1.83%
COc1ccc(Cl)cc1N1CC(C(=O)Nc2nccs2)CC1=O (stereo unspecified),"inconclusive [inhibitor, single point]",–
CCCc1cc(=O)oc2cc(OCC(=O)NCCCN3CCOCC3)c(Cl)cc12,"inconclusive [inhibitor, single point]",–
COCC1CCN(C(=O)CCc2nnc(C3(c4ccc(Cl)cc4)CCC3)o2)CC1,"inconclusive [inhibitor, single point]",–
COc1cccc(C2C(C(C)=O)=C(O)C(=O)N2Cc2ccco2)c1 (stereo unspecified),–,inactive: -15.2%
Cc1oc(-c2cc(F)ccc2F)nc1CN1CCC(C(=O)N2CCOCC2)CC1,–,inactive: 12.8%
O=C(COC(=O)COc1ccc2ccccc2c1)NC1CCCc2ccccc21 (stereo unspecified),–,inactive: 3.96%
CC(=O)/C(=N\Nc1ccc(Cl)cc1Cl)Sc1cccc2cccnc12,"inconclusive [inhibitor, full curve, poor fit]",–
COc1ccc(C(CNC(=O)c2ccc(OCc3ccccc3)cc2)N2CCOCC2)cc1 (stereo unspecified),"inconclusive [inhibitor, single point]",–
CC(C)CN(C(=O)c1ccc(N2CCCC2=O)cc1)c1c(N)n(Cc2ccccc2)c(=O)[nH]c1=O,–,inactive: -12.7%
CCOC(=O)Cn1c(=O)oc2cc(S(=O)(=O)Nc3c(C)cc(C)cc3C)ccc21,"inconclusive [inhibitor, single point]",–
CCCCCCCCN1[C@@H](CC(=O)O)c2ccc(/C=C/C(=O)O)cc2S1(=O)=O,"inconclusive [inhibitor, single point]",–
CCOC(=O)c1cnc2c(C)cc(C)cc2c1Nc1ccc(N2CCOCC2)cc1,active: 25.9 µM,–
CCNc1oc(COc2ccccc2F)nc1C#N,–,inconclusive: -33.1% [inhibitor]
COC(=O)[C@]12CCCCC=C1N(CCC1=CCCCC1)C(=O)[C@H](CC(=O)N1CCN(C(=O)C3CC3)CC1)C2,"inconclusive [inhibitor, single point]",–
O=C(Nc1ccccc1)C1=C[C@@H](c2ccc(C(F)(F)F)cc2)C[C@@H](OCCCCO)O1,"inconclusive [inhibitor, single point]",–
O=[N+]([O-])c1ccc(NC2CCCCC2)nc1,–,inactive: -21.5%
CC(NC(=O)COC(=O)c1ccccc1O)C1CC2CCC1C2 (stereo unspecified),"inconclusive [inhibitor, single point]",–
Cn1c(=O)c2c(nc(SCCN3CCOCC3)n2Cc2ccccc2Cl)n(C)c1=O,"inconclusive [inhibitor, partial curve, poor fit]",–

# From PubChem BioAssay AID686979 (National Center for Advancing Translational Sciences (NCATS), 2013)
